# According to the supplement of paper PMC11417369:
# ± gives the standard deviation of the averaged measurements. The list shows a part of the results.
# Tested on: PfAP2-I AP2 domain 3 (GST-tagged)
# Test: gcPBM binding intensity (ln(normalized median fluorescence intensity)); higher = stronger DNA binding
# How it was run: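 The highest Masliner-normalised natural-log median intensity across replicate spots of either probe orientation is reported as binding intensity. GST-tagged P. falciparum DNA-binding domains expressed in E. coli were applied for 1 h to an Agilent 4 × 180k array of primer-extended double-stranded 36-bp intergenic genomic probes plus negative controls, and bound protein was detected with Alexa488 anti-GST antibody and scanned at 488 nm.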
row,Sequence,gcPBM binding intensity (ln)
1,AAAAAAAAAAAAAAAAAAAACGAAAAACATCAAAGA [TGCATGCA_negctrl_site78],9.22 ± 0.26
2,ATAATAAAATAACTAGTGCATATTCAAAGGATTCAG,9.67 ± 0.057
3,ATATATATTTAACAATGTACTTATTCAGAGAATAAT [XGTACX_site574],7.58 ± 0.45
4,AAAATATTTTTATAATGTACATATAGTTGTATTTGT [XGTACX_site8724],7.95 ± 0.5
5,ATTTTTATTCAGTTCACACACGCTTTAATATTATAT [CACACA_site3465],8.3 ± 0.58
6,CCCTTAATATAAAGCACACATATATATAATATATAT [CACACA_site4439],10.2 ± 0.46
7,AAGTTGAAATAATGTGCACACATTTTTTTTTTTTTT [CACACA_site3368],9.38 ± 0.61
8,ATTAATAAAAAATTTTAAAAAATAAATAAAATAAAA [TGCATGCA_negctrl_site113],7.58 ± 0.42
9,ATAATAAATAAAATAACACACATATATAAATATATA [CACACA_site170],7.54 ± 0.3
10,TAATTATATATATACACACACATACAGACAAATAAA [CACACA_site3412],8.15 ± 0.56
11,GAAATTTGTTATTGCACACAAATTTTTCTTTTTTTA [CACACA_site2339],10.14 ± 0.028
12,TACCATATTTCTTCAAGTACGCATTATGTTAAAAAG [XGTACX_site345],7.95 ± 0.32
13,TACATATATTTTTATACATGCATAACTTAGGACTTT [TGCATGCA_site113],7.62 ± 0.58
14,ATATTTATATATATCATACACACTAATATGTATATT [CACACA_site3409],7.52 ± 0.57
15,TCCTTTTTGAAATGTTGTACTTTTTTTATCTTTCAT [XGTACX_site953],7.82 ± 0.65
16,ATATATATATATAATTGTACATATAATATAATATTA [XGTACX_site5216],9.1 ± 0.42
17,ATATATATTATATATAGTACTTTTTTGCGCAAATAT [XGTACX_site6849],8.08 ± 0.44
18,AACACATGCTTGGTCACACACGTATGCATATTTAAA [CACACA_site5206],8.04 ± 0.63
19,AATATGTTATAAATATGTTATAAATAATAAATAAAT [GTGCAC_negctrl_site135],7.74 ± 0.62
20,TATTTTTTTTTTTTTTTTTTTTTAAAACATATCAAT [CACACA_negctrl_site925],7.58 ± 0.46
21,ATTTTTTTTTTTTTATGTACATATAGGTGCAAATCA [XGTACX_site6748],11.3 ± 1
22,ACAATGTCATTTGCTAGTACGCATATTGGTTGTAAA [XGTACX_site8924],7.76 ± 0.24
23,TAAAAAAAAAAAAAAAGTACACACATACATATAAAT [XGTACX_site3752],7.88 ± 0.52

row,Sequence,gcPBM binding intensity (ln)
1,TATATAAATAGACACACACACACCTTATAATTACTA [CACACA_site7828],7.88 ± 0.25
2,AAAAAAAAAAAACACACACACACATACACATACATA [CACACA_site2858],7.98 ± 0.37
3,ATAATAATTAACCTATGTACATAGGAAAGTCATAAA [XGTACX_site4387],7.8 ± 0.45
4,GAAGAAAAATAAAAAGTGCAAAAAAAGTAAAAATTT [GTGCAC_site9897],10.12 ± 0.092
5,TATGTATGTGCTTGTGCGCACCGATAATATAGCCAA,9.94 ± 0.24
6,TGCTATAATTTATATACACACAAATATATACGCATA [CACACA_site4096],7.72 ± 0.5
7,TCTCATAGTAGACACACACACACACGCACATATATA [CACACA_site6916],8.2 ± 0.51
8,ACATAAGACACAAATACACACAAAAATATGTAACAA [CACACA_site7836],8 ± 0.22
9,TTTTATGAAAAGTATTGTACGTATAATTTATATGTA [XGTACX_site1639],7.86
10,ACAAATACAAAAAAAGGTACACACATAATATATTTA [XGTACX_site5515],7.85 ± 0.16
11,AATATAAATACTCCTACACACATATATATATATATA [CACACA_site3010],9.32 ± 0.35
12,GACACAAAAAAATAATAATAATAATAATAATAAATA [XGTACX_negctrl_site145],7.28 ± 0.41
13,AAATATTTTATACTTGCACACAAAATATATTAAAAT [CACACA_site8606],8.66 ± 0.29
14,TTTGTTTTTAATTTCGCACACACCTTGTGGAAAAAA [CACACA_site577],8.6 ± 0.4
15,TTCTTATAAATATACACACACAAAATATCTACAATG [CACACA_site6487],7.92 ± 0.38
16,TGTGTAAGATCTTGGATGATGATAAGAATCTACTAG [CACACA_negctrl_site1167],7.59 ± 0.75
17,TTATAAGATTTATGTACACACATATACTCACCTCTA [CACACA_site729],7.92 ± 0.38
18,CCTTAAAATAAGATATGTACGCAAAGGAAAACAAAG [XGTACX_site6057],8.4 ± 0.47
19,TTTGGCTAGTTAGGCCGTACATGTAAATAATATATA [XGTACX_site1138],7.96 ± 0.57
20,TCCATATATGCCTTATGTACATATACCAAATTAACC [XGTACX_site6513],8.26 ± 0.33
21,AATAATAAAGTGAACACACACATATAACATCTATAT [CACACA_site7868],7.7 ± 0.52
22,AATGAATGTAAGAAAATACACACTAGTATAGTAACA [CACACA_site1955],7.84 ± 0.67
23,TTGGAAAAAGTGAAATGTACATATATATTTATTATT [XGTACX_site6946],7.74 ± 0.55

row,Sequence,gcPBM binding intensity (ln)
1,GAAGTTTTTTAAAGATGTACTTTTTAAAAATAATCT [XGTACX_site263],7.75 ± 0.36
2,TATTTTATAAATTAATGTACATAAATTATATCTACT [XGTACX_site3625],7.67 ± 0.27
3,ATTACGATAGAGAAATGTACATATATATATGTAAGT [XGTACX_site1200],7.91 ± 0.54
4,TATATATATAAGATTGTGCACATTAAAATGATAGAA [GTGCAC_site9621],10.695 ± 0.007
5,GATCAAAATTATAGAAGTACTTTATATAAATAAAAT [XGTACX_site8161],7.71 ± 0.38
6,TCTATAAAATATAAAAGTACGTATCAATAATTAAAA [XGTACX_site8469],7.62 ± 0.42
7,TCATAAATACATTTTGCATGTAAAATATAGAATACA [TGCATGCA_site755],7.54 ± 0.62
8,AAGTAAAAAAAAAAAAGTACATGTTTATATAAATAT [XGTACX_site4741],7.75 ± 0.43
9,ATAGAATCTGGTAGCTGTACGAGTCGTAGAGTGTAG [XGTACX_site2016],8.29 ± 0.5
10,ATATATTAAAAGGATTAGGAAAAAATATGATTTATC [TGCATGCA_negctrl_site405],7.55 ± 0.78
11,ATAAATTAACATTAAAGTACATTTTAATAAATATTA [XGTACX_site3647],7.43 ± 0.3
12,ATACATATATATAATACACACATAAATGTAACATTT [CACACA_site3518],8.06 ± 0.49
13,ATCCCCATAAAAAATACACACAAATATTTATACATA [CACACA_site1001],7.87 ± 0.33
14,CCATAAAACTATAATACACACATATAGATTAACATA [CACACA_site7849],7.82 ± 0.33
15,AAAATTGGTGAAAATGAAAATATGATTATATGTATA [XGTACX_negctrl_site505],7.41 ± 0.83
16,TGATAAGAAAAAGACTTTTCCTTCTTACTTTCTATG [CACACA_negctrl_site782],7.57 ± 0.54
17,AATAATGTTTTTATATCACACACAAATATTAAATGA [CACACA_site8074],7.76 ± 0.55
18,CAAAATAAATAATTTGGTACACATAAAAAAAAAAAA [XGTACX_site8380],8.01 ± 0.57
19,AAAAAAAAAACATACACACATACATACATATATATT [CACACA_site949],7.51 ± 0.2
20,ATGAAGAATTTATATTGTACCCATTTTTATGTAAAT [XGTACX_site2528],7.89 ± 0.52
21,CGAAAAAGTGATATAGTGCAAAATTTTCATTTCTCT,9.805 ± 0.049
22,TGCTGTATATTTTTCTGTACACATTTATATATTCCA [XGTACX_site6244],8.12 ± 0.46
23,TTTTTTTTTCTTCTTTTCAAATTTAAGAAATTATAA [CACACA_negctrl_site18],7.55 ± 0.57

row,Sequence,gcPBM binding intensity (ln)
1,TTGTTATTATATTACGCATGCATCATTTATTTGCAC [TGCATGCA_site525],9.71 ± 0.22
2,AAAGGGAATTATGGCTGTACGCATTTTATAAATAGC [XGTACX_site5878],7.93 ± 0.44
3,AAGAATAAGAAGAAGGATCCCCTTCAAAAAAAAAAA [TGCATGCA_negctrl_site525],7.6 ± 1.1
4,AACAGATAAAAGGGTACACACATATATACAAGTACA [CACACA_site7959],7.89 ± 0.33
5,TATATAGATATGATAGTGCATTTTTAGAAAACATAA [GTGCAC_site9962],9.44 ± 0.14
6,TTATGTAGCTAGCTATAAACTTTTTTTTATTTAAAA [CACACA_negctrl_site1297],7.33 ± 0.62
7,ATTATTATTAAATACACACACATACCTCCATGTTAG [CACACA_site3430],7.83 ± 0.59
8,ATATATATATATATATGTACATACTATACAATAATT [XGTACX_site3546],9.45 ± 0.67
9,ATATGTATGTATAATCGTACAAAATTTGGCGATCTT [XGTACX_site8698],7.47 ± 0.5
10,TTTATATGTATTAATTGTACACATATAATGTGTTTT [XGTACX_site3064],7.61 ± 0.5
11,TTTTTTTTAAAACTATGTACGTAAAAATTGTAGTTT [XGTACX_site2302],8.215 ± 0.049
12,GATATAATTATGTGTACACAATTTTTTTTTTTTTTT [CACACA_site4501],8.21 ± 0.25
13,AAATAAAGGAAATAAAAAGAAACCAATTTCGAATAT [CACACA_negctrl_site953],7.59 ± 0.77
14,AGAACTTTTAATGGATGTACAGTTATTTTATTATTT [XGTACX_site6226],7.83 ± 0.43
15,ATATAGTAAATTGGTAGTACATAAAATGATTTTATG [XGTACX_site4143],7.85 ± 0.52
16,AATAATAAAGTGAACACACACATATAATATATATAT [CACACA_site4143],8.87 ± 0.15
17,ATAATTAAAATGCTCACACACATAAAAAAAAATTAA [CACACA_site2149],7.68 ± 0.48
18,CAAACAAACGAACACACACACACACGCAAAAATGAT [CACACA_site7194],8.05 ± 0.52
19,ATGCTTTTATGCACACGTACAAAAATATTATATAAT [XGTACX_site5589],10.6 ± 0.86
20,ATAATTTTATCATATATATATATATATAAATACTTA [CACACA_negctrl_site743],7.82 ± 0.33
